Consider 167 variants from the RNAGym collection of RNA variant scans (doi:10.7554/elife.90254).

The source gives no read counts; variants with many changes may rest on few reads.

The labels stand for the following.
B1: LINE1-full (parent)
chain: UACGUAGGUGGUUUUCCCCUGAUAGUGCUAAGGGGGCCUGGAAGUUUGGACUGGGCAGAGCUCAACACAGCGUGGCAAAGUGGCUGUGGCUAGACUGCCUCUCUGGAUUCCUCGUCACUCAGCAGGGCAUCUCUGAGAGAAAUGCC

The series covers variants of B1. As to the kind of experiment: self-cleavage, relative activity (ratio to wild type); higher = more cleavage; in vitro, sequencing; the parent is a self-cleaving ribozyme.
With G35U C56U U62A U85C, the self-cleavage was 0.03.

Regarding C37U U112C A124G, the self-cleavage amounted to 0.

For U39C U73C A140G, the self-cleavage amounted to 0.

Consider U39A A50U U112C, for which the self-cleavage was 0.39.

As for U39A A43G U47C C61U, the self-cleavage is 0.04.

As for G36C A50U U81A, the self-cleavage turned out to be 1.46.

For the variant G35U C37U A65G, the self-cleavage came out at 0.

Take U39A G41A A43G: the self-cleavage came out at 1.06.

In the case of U39C U46C U85C U102C, the self-cleavage amounted to 1.31.

For U39C A69G U96A A141G, the self-cleavage turned out to be 0.

For the variant G40A U45C U87C A138G, the self-cleavage was determined as 0.24.

As for G36U A43U U91C U115C A136G, the self-cleavage is 0.45.

For G40A U47A U102C, the self-cleavage is 0.71.

Turning to C38U U45G U81C G144A, the self-cleavage worked out at 0.91.

For U39C A124U A136U, the self-cleavage was 0.43.

Take G36C U45C U96G U134C: the self-cleavage came to 0.

U39A U47A U85C U115C: the self-cleavage was determined as 0.09.

Consider G35A A94G A138U, for which the self-cleavage amounted to 0.12.

On to C37G A57G G82A A94U U96A, for which the self-cleavage turned out to be 0.04.

On to C38A A59G U62A, for which the self-cleavage stood at 0.05.

For the variant G36U U47C G106U U132A A136G, the self-cleavage was 1.3.

Consider U39A A107G U130C, for which the self-cleavage was determined as 1.4.

Regarding G35A A94U U109A, the self-cleavage is 0.18.

On to C38U A69U U104C, for which the self-cleavage was 0.02.

With G36C A65G A117G A140G, the self-cleavage came out at 0.

For G36C A59U A69U, the self-cleavage amounted to 0.03.

As to U39C A67G C101A, the self-cleavage worked out at 0.14.

On to C38A U73C U132C, for which the self-cleavage is 1.95.

Take G34U A67G A141G: the self-cleavage was 0.43.

As for U39C A78G U104A, the self-cleavage amounted to 0.54.

With G40A A43G U46C U62C U85A, the self-cleavage is 0.08.

On to U39C A43G G114A U115C, for which the self-cleavage came out at 1.47.

Regarding C38U A78G U104A U108C, the self-cleavage came out at 2.09.

Consider U39C A64G U100C, for which the self-cleavage turned out to be 0.

U39C A78G U109A: the self-cleavage stood at 0.4.

Take U39C U52C U109C: the self-cleavage is 0.24.

Consider U39C U46C U81A, for which the self-cleavage was determined as 2.46.

Take G40A A94G A107G: the self-cleavage amounted to 0.16.

In the case of U39C U108A A141G A142G, the self-cleavage turned out to be 0.53.

Consider G34U A79U U96C U100C U102C A138G, for which the self-cleavage came to 0.09.

Consider C38U A43G U96C, for which the self-cleavage came out at 0.21.

Consider U39C G83A U112C A124G, for which the self-cleavage is 0.23.

For the variant C38U U52C A59G A77U U81C A121U, the self-cleavage was 0.13.

In the case of G34U U96A A141G, the self-cleavage was 0.06.

Take U39A U132C A142G: the self-cleavage is 1.66.

Consider C37A U108C U132C, for which the self-cleavage is 1.87.

For the variant U39G U47C U96C A138G, the self-cleavage was 0.

As for G35A A117G U132C, the self-cleavage came to 1.24.

With U39A U46C U81C U130C, the self-cleavage was found to be 1.62.

Consider U39A A78U G139A, for which the self-cleavage is 2.59.

In the case of U39A U73A A129C, the self-cleavage came out at 1.93.

G35U U46G A117G: the self-cleavage is 0.29.

As to U39C A57G C99A, the self-cleavage amounted to 0.33.

Turning to U39A U45A U102C G114A A124G, the self-cleavage came to 1.05.

Regarding C38U A42U A67G U81A A142G, the self-cleavage was 0.49.

For the variant U39A A50G A69G A79G A142G, the self-cleavage stood at 0.

On to G40U A79G A121G, for which the self-cleavage was found to be 0.86.

In the case of C37A A69G G72A A94G C103U U115C U130C A138U, the self-cleavage was 0.

In the case of U39C U62C U100C U112A, the self-cleavage amounted to 0.

Take U39A U62C A77G A142G: the self-cleavage was 0.08.

C37A G55U U73A: the self-cleavage was 0.1.

Consider C38U U62C A79G U109A, for which the self-cleavage was 0.

With U39A U112C C113U U132A, the self-cleavage was found to be 0.61.

Turning to G36C A42G A67G G80U G86A, the self-cleavage turned out to be 0.02.

For U39C U47C G105A A136G A142G, the self-cleavage came out at 0.3.

For U39A A43G U87A, the self-cleavage came out at 0.1.

U39C U100A U134A: the self-cleavage stood at 0.39.

Consider U39C U73G U81A G93U, for which the self-cleavage is 0.03.

For G41A A42G A117U A129U A136U A140G, the self-cleavage was 1.55.

In the case of U39A G86A U143A, the self-cleavage was 0.09.

Regarding G36A A129U U130A, the self-cleavage came out at 0.95.

With G40A U112A A124G, the self-cleavage stood at 1.12.

For the variant G36A G106U A117G U132C, the self-cleavage turned out to be 1.2.

Turning to G36C U130C A141U, the self-cleavage came out at 0.99.

Turning to U39C A92G U104A, the self-cleavage turned out to be 0.

Regarding C38U U115C C128U, the self-cleavage turned out to be 1.67.

In the case of G36C U73C U100C, the self-cleavage stood at 0.

As to G36U A64U A77G A78G U112C, the self-cleavage was 0.52.

As for G35A U112C U143C, the self-cleavage was found to be 0.85.

U39C U102C U115G C133U: the self-cleavage worked out at 0.66.

As for C38U U119A A136G, the self-cleavage came out at 1.68.

On to U39A U96G U100C C103U, for which the self-cleavage came out at 0.

For the variant U39C U52A G72A, the self-cleavage turned out to be 0.05.

On to C37G U73C G106A, for which the self-cleavage stood at 1.74.

For the variant G40U A64G U73C, the self-cleavage amounted to 1.1.

In the case of G35U U46C A121U A136U, the self-cleavage was determined as 1.49.

For G35U U73C U87C G144A, the self-cleavage amounted to 0.32.

Regarding U39C U45G U132C, the self-cleavage turned out to be 0.23.

As to U39A C120U U130C, the self-cleavage is 1.16.

Regarding G36A A140G A141G, the self-cleavage turned out to be 1.63.

Take C38U G75U A94C A142G: the self-cleavage was found to be 0.03.

With G35U U62C U87A C90U A92G, the self-cleavage is 0.03.

On to G40A C66U U130C, for which the self-cleavage amounted to 0.

As to U39C A50U U91A, the self-cleavage came to 0.21.

As for G34U G53U A79G A121C A136U A141G, the self-cleavage turned out to be 1.18.

Take C38A A42G A136U: the self-cleavage turned out to be 2.16.

Turning to U39A A69G G127U U132C, the self-cleavage stood at 0.34.

As to U39C A67G G83A U87C A107U, the self-cleavage is 1.88.

For U39C U62C C68U, the self-cleavage came out at 0.03.

For U39C U52C U130C, the self-cleavage was found to be 0.41.

Regarding G36C U47C U134C, the self-cleavage was determined as 2.06.

In the case of U39C A59G A64G U104A A141G, the self-cleavage came to 0.

As to C37A U39C U87A, the self-cleavage was found to be 0.05.

For C38U A42G U102C U108A A124G, the self-cleavage is 1.48.

Regarding G35A U39A U47A A94G U134C A141G, the self-cleavage was determined as 0.22.

As for C38A A65G C71A, the self-cleavage worked out at 0.04.

Turning to G36U U39A A138G, the self-cleavage amounted to 1.3.

Turning to G40A G105A A140G, the self-cleavage was 0.81.

In the case of C37A U39C G53A A59U A94U U108C A117C, the self-cleavage turned out to be 0.02.

As to G35U A43G U115C A142G, the self-cleavage turned out to be 1.46.

For C38U A42G C99U, the self-cleavage turned out to be 1.74.

On to U39C C120U A142G, for which the self-cleavage came to 1.48.

Regarding U39C A57U A59U U91A, the self-cleavage is 0.05.

With C37G A57G A64U, the self-cleavage turned out to be 0.12.

For U39C A64U U134C A141G, the self-cleavage turned out to be 0.2.

In the case of C38U A67G U73A U104C A136U, the self-cleavage amounted to 0.65.

On to U39C U45A U100C A142G, for which the self-cleavage was 2.24.

As for G35A U47A U143A, the self-cleavage worked out at 1.06.

Consider U39A U96A U109A G122A, for which the self-cleavage worked out at 0.03.

Take G35U U52C G86U: the self-cleavage is 0.05.

On to C37G U46G U130C, for which the self-cleavage came to 1.19.

With U39A A59G A69U C90U, the self-cleavage is 0.05.

On to U39C A77G C118A A142G, for which the self-cleavage was 1.5.

As to G35U A43U A107G, the self-cleavage came to 1.19.

Turning to U39C U96C U134A, the self-cleavage was 0.

Consider C38U U47A A78G, for which the self-cleavage stood at 1.07.

U39A A69G A124U A142G: the self-cleavage was 1.09.

Take U39G A94G U112C C123U A136U: the self-cleavage was found to be 0.42.

As to U39C U45C A141G, the self-cleavage was 1.23.

For the variant G40A A43G A65G A138G, the self-cleavage worked out at 0.09.

For C37U U39C A117C C146A, the self-cleavage amounted to 1.15.

Take G40A A69U U112C G122A A138G: the self-cleavage was 0.05.

As to U39A U102C A117G U130C A142G, the self-cleavage stood at 1.97.

Take U39A U46A U52C: the self-cleavage was determined as 1.51.

Regarding U39C U62C U96G, the self-cleavage turned out to be 0.

For the variant G36C U87C U132C, the self-cleavage was determined as 0.15.

For G36A U47C A141G, the self-cleavage was found to be 0.33.

On to G34U U45C U46A, for which the self-cleavage turned out to be 1.67.

Consider G35U A77U U134G, for which the self-cleavage is 1.69.

U39A A64G U104C: the self-cleavage came out at 0.

For the variant U39A U112C C113U G127U A141G, the self-cleavage worked out at 1.59.

G35U A57G U96G: the self-cleavage was determined as 0.1.

Regarding G36A A69G A117U, the self-cleavage was determined as 0.59.

G35A U73C U115A: the self-cleavage was found to be 1.49.

In the case of U39C A64G A79G A138G C145U, the self-cleavage was 0.57.

Regarding U39C U46A U143A, the self-cleavage stood at 1.48.

In the case of U39A C56U A142G, the self-cleavage came to 0.33.

Regarding U39A A77U U104C A140G, the self-cleavage was 1.03.

G36A U112A A117C A121G: the self-cleavage was determined as 1.97.

On to U39A A94G U96A, for which the self-cleavage came to 0.11.

U39C U73A A141U: the self-cleavage was found to be 1.36.

On to C38U U91A U104C, for which the self-cleavage came to 1.1.

In the case of C37U A42G A94G A140G, the self-cleavage is 0.27.

For the variant C37U U62C C123U A124U, the self-cleavage was determined as 0.03.

U39A U81A A142U: the self-cleavage came out at 1.6.

Regarding U39A U45C C63U, the self-cleavage stood at 0.26.

Take G36A A77G A136G: the self-cleavage was 1.9.

Turning to U39C A77G U85C G122A, the self-cleavage worked out at 0.11.

As to U39C U130C U143A, the self-cleavage was determined as 0.99.

For the variant U39A A67G C123U, the self-cleavage stood at 0.62.

As to U39G A79G U81C A121U, the self-cleavage was 0.3.

Turning to G35A A57U U109C A142G, the self-cleavage worked out at 0.06.

For G40A A107G A124G, the self-cleavage is 0.77.

Take C38A A92G A121U: the self-cleavage was found to be 0.09.

On to C38U A69U G74A A78G, for which the self-cleavage is 0.03.

Regarding U39C A64G G83A, the self-cleavage was determined as 0.15.

Consider C37U A50U A57G A79G, for which the self-cleavage worked out at 0.3.
